The full ranking holds about 5,400 compounds; the median of “IFI” is about 2, and the highest 2% start at about 22. The list shows a part of the results.

The results in this text go back to ChEMBL document CHEMBL1156829.

A short description of this experiment: NOVARTIS: Inhibition Frequency Index (IFI) - the number of HTS assays where a compound showed > 50% inhibition/induction, expressed as a percentage of the number of assays in which the compound was tested. In kind it is functional.
On to `Cc1cc(C(=O)Nc2cnn(Cc3ccc(Cl)cc3Cl)c2)no1`, for which the IFI amounted to 0%.

With `COc1cc(CNc2ccc(N3CCCCC3)cc2)ccc1OCc1ccccc1F`, the IFI turned out to be 2.78%.

`O=C(NCCc1ccccc1)C(=O)NN=Cc1ccccc1` returned an IFI of 0%.

The molecule `COC(=O)NCCNC(=O)COC(c1cccs1)c1cccnc1Cl` (stereo not drawn) showed an IFI of 1.94%.

`Cc1cccn2c(=O)c3cc(C(=O)NCc4ccco4)c(=N)n(CCc4ccccc4)c3nc12`: the IFI was found to be 7.81%.

Molecule `CCN(CC)CCN(Cc1cc2cc(OC)ccc2[nH]c1=O)C(=S)Nc1cccc(Cl)c1` came in with an IFI of 7.14%.

In turn, `Clc1cc(C=NNC2=NCCCN2)cc(Cl)n1` came in with an IFI of 0%.

Regarding `Cc1cccn2c(=O)c3cc(C(=O)NC4CCCC4)c(=N)n(CCc4ccccc4)c3nc12`, the IFI is 6.76%.

In the case of `COCCN(CC(O)CNC(=O)c1ccc2ccccc2n1)S(=O)(=O)c1c(C)noc1C` (stereo not drawn), the IFI came to 1.96%.

Take `COc1cccc(CN2CCN(C(=O)c3c(C)noc3C)[C@@H](C)C2)c1`: the IFI was determined as 0%.

Turning to `COc1ccc2nc(C)cc(NN=Cc3cccs3)c2c1`, the IFI is 15.4%.

As for `CCN(CC)c1ccc(NCc2ccc3c(c2)OCO3)cc1`, the IFI worked out at 2.98%.

With `CC1CC(C)CN(S(=O)(=O)c2ccc(C(=O)Nc3ccc(-c4nc5ccccc5o4)cc3)cc2)C1` (stereo not drawn), the IFI was 3.23%.

Turning to `CCN(CCN1CCN(S(=O)(=O)c2cc(Cl)ccc2Cl)CC1)CC1=CCC2CC1C2(C)C` (stereo not drawn), the IFI worked out at 1.85%.

`CC(=NNC(=O)c1ccc(C)cc1)c1ccccn1`: the IFI worked out at 0%.

The molecule `CCCn1c(SCCNC(=O)/C=C/c2ccccc2)nc(-c2ccccc2)c1-c1ccccc1` registered an IFI of 0.926%.

For the molecule `CN1CCN(c2cc(-c3ccncc3)nc(-c3cccnc3)n2)CC1`, the IFI worked out at 0%.

`CCN1C(=Cc2sc3cc(NC(C)=O)ccc3[n+]2CC)C=Cc2cc(C)ccc21` gave an IFI of 7.69%.

With `COC(CNc1cc(-c2ccccn2)nc(-c2ccccn2)n1)OC`, the IFI came to 7.69%.

`CC(C)c1nc(N2CCN(C(=S)NCc3ccccc3)CC2)c(C#N)c2c1COC(C)(C)C2` yielded an IFI of 0%.

As for `CCCCCCCCC(=O)Oc1ccccc1-c1nc2cc(C)ccn2c1NC(C)(C)CC(C)(C)C`, the IFI is 4.63%.

`COc1ccc(C2=NN(C(=O)CCC(=O)O)C(c3ccccc3F)C2)cc1` (stereo not drawn) had an IFI of 0%.

Molecule `CC(C)CN1C(=O)c2ccccc2C(C(=O)Nc2ccc(CN3CCC(C)CC3)cc2)C1c1cccs1` (stereo not drawn) gave an IFI of 3.03%.

As for `CCC(c1nc2ccccc2c(=O)n1-c1ccccc1OC)N(CCc1ccccc1)C(=O)c1cccc(OC)c1` (stereo not drawn), the IFI came out at 3.67%.

In the case of `O=C(NCCCCCCNC(=O)Nc1nc(-c2ccc(F)cc2)cs1)Nc1nc(-c2ccc(F)cc2)cs1`, the IFI was 3.17%.

In turn, `CCOC(=O)C1=C(C)NC2=C(C(=O)CC(c3ccc(OC)cc3)C2)C1c1cccs1` (stereo not drawn) yielded an IFI of 0%.

Molecule `CN(C)CCNc1cc(-c2ccccc2)nc2ccccc12` returned an IFI of 1.6%.

Molecule `O=c1c2c([nH]c3ccccc13)CCCCCC2` yielded an IFI of 0%.

With `CCOc1ccc(Nc2nc(N3CCCCC3)nc(N3CCCCC3)n2)cc1`, the IFI is 0%.

The molecule `CN1CCN(c2nc(NN=Cc3ccc(O)cc3)nc(Nc3ccc([N+](=O)[O-])cc3)n2)CC1` had an IFI of 7.69%.

Turning to `COc1cc(NC(C)CCCN(Cc2ccc(OC)c(OC)c2)C(=O)CCC2CCCC2)c2ncccc2c1` (stereo not drawn), the IFI is 3.01%.

Regarding `CCCOC(=O)C1=C(C)NC2=C(C(=O)CC(c3ccc(Cl)cc3)C2)C1c1ccc(Br)cc1` (stereo not drawn), the IFI was found to be 3.57%.

Consider `CCN(CC)c1ccc(N=Cc2ccccc2[N+](=O)[O-])cc1`, for which the IFI was found to be 10.3%.

`Nc1noc2cccc(OC3CCNCC3)c12` gave an IFI of 4.17%.

`CCCCCCc1ccc(/C(C=[N+](C)C)=C\N(C)C)cc1` registered an IFI of 21.4%.

As to `CC1(C)N=C(N)N=C(N)N1c1ccc(Br)cc1`, the IFI came out at 4.92%.

`COc1cccc(CCN2Cc3ccc(C(=O)NC(C)C)cc3N=C2c2ccc(C)cc2)c1` gave an IFI of 3.66%.

`COC(=O)C1=C(C)NC2=C(C(=O)c3ccccc32)C1c1ccc(OCC#N)c(OC)c1` (stereo not drawn) yielded an IFI of 0%.

Molecule `CCCN1CCc2c(sc3nc(SC)n(-c4ccccc4)c(=O)c23)C1` displayed an IFI of 11.5%.

`COc1cccc(N2C(N)=NC(N)=NC2(C)C)c1`: the IFI stood at 0%.

As for `C(=NNc1nc2ccccc2[nH]1)c1cccc(Oc2ccccc2)c1`, the IFI was found to be 0%.

`O=C(c1cccs1)N1CCN(c2ccc([N+](=O)[O-])c(NC3CC3)c2)CC1` showed an IFI of 2.5%.

`COc1ccc(C(=O)ON=C(N)Cc2ccc(Cl)cc2Cl)cc1[N+](=O)[O-]` came in with an IFI of 0%.

Molecule `CC(=NO)c1ccc(NC2=C(N3CCCCC3)C(=O)c3ccccc3C2=O)cc1` yielded an IFI of 0%.

Consider `CCCC(C)C(C(=O)Nc1c(C)cccc1C)N1C(=O)c2cc(NC(C)=O)ccc2NC(=O)[C@@H]1CCC(=O)O` (stereo partly drawn), for which the IFI amounted to 3.66%.

For the molecule `CS(=O)(=O)Nc1cccc(-c2cnc(N)c(-c3ccc(C(=O)N4CCOCC4)cc3)n2)c1`, the IFI was 0%.

Regarding `CCN(CC)c1scc(-c2ccc(Br)cc2)[s+]1`, the IFI stood at 7.69%.

With `CCOC(=O)NC(=O)N1CCC(c2nc(-c3cc(C(C)(C)C)c(O)c(C(C)(C)C)c3)cs2)CC1`, the IFI came to 0%.

For `CC(=O)c1ccc(N2C(C)c3nc4ccccc4c(=O)n3C2c2cccc(O)c2)cc1` (stereo not drawn), the IFI came to 7.14%.

In the case of `Nc1nonc1-n1nnc(-c2ccccc2)c1C(=O)NN=Cc1ccc(F)c(Br)c1`, the IFI came out at 0%.

For the molecule `C/C=C/C(C(=O)NCCCC)N1C(=O)c2cc(NC(C)=O)ccc2NC(=O)[C@@H]1C` (stereo partly drawn), the IFI was determined as 1.24%.

`C[N+](C)(CCCC(=O)c1ccc(C(=O)CCC[N+](C)(C)Cc2ccccc2Cl)cc1)Cc1ccccc1Cl` returned an IFI of 0%.

`O=C(Oc1ccccc1-c1nc2ccccn2c1NC1CCCCC1)c1ccc([N+](=O)[O-])cc1Cl` came in with an IFI of 2.8%.

In the case of `O=C(COc1ccc(Cl)cc1)NCc1ccc(CNc2noc3ccccc23)cc1`, the IFI is 5.56%.

As for `N#Cc1ccc2c(c1)nc1c3ccc4c5c(ccc(c(=O)n21)c53)C(=O)NC4=O`, the IFI came out at 16.4%.

Molecule `c1ccc(Cn2c(N=Nc3c(Nc4ccccc4)ccc4ccccc34)nc3ccccc32)cc1` showed an IFI of 15.1%.

On to `CCOC(=O)c1cnc2ccc(OC)cc2c1NCc1cccs1`, for which the IFI came out at 1.85%.

Take `CC(=O)N(C)C1=C(N2CCOCC2)C(=O)c2ccccc2C1=O`: the IFI was determined as 22.1%.

For the molecule `O=c1c2c3c(sc2[nH]c(=S)n1C1CCCCC1)CN(Cc1ccccc1)CC3`, the IFI is 0%.

As for `CC(C)NC(=O)[C@@H]1C[C@@H](NCc2cccnc2)CN1Cc1ccc2ccccc2c1`, the IFI was determined as 0%.

`COc1cc(Nc2nccn3c(-c4ccsc4)cnc23)cc(OC)c1OC` displayed an IFI of 8.33%.

Consider `CC(C)CNC(=O)c1cnc(NCCCn2ccnc2)nc1NC1CCCC1`, for which the IFI came to 2.88%.

Molecule `COc1ccc(-c2cnc3ccc(NCc4cccc(Cl)c4)nn23)cn1` registered an IFI of 0%.
